# Data taken from the supplement of paper PMC12217912.
# The other results are listed elsewhere or left out. Sequences were assembled here from the parent chain. Inactive controls read about 0.05.
# B1: TEV protease; numbered along this chain (parent)
# chain: MGESLFKGPRDYNPISSSICHLTNESDGHTTSLYGIGFGPFIITNKHLFRRNNGTLVVQSLHGVFKVKDTTTLQQHLVDGRDMIIIRMPKDFPPFPQKLKFREPQREERICLVTTNFQTKSMSSMVSDTSCTFPSGDGIFWKHWIQTKDGQCGSPLVSTRDGFIVGIHSASNFTNTNNYFTSVPKNFMELLTNQEAQQWVSGWRLNADSVLWGGHKVFMVKPEEPFQPVKEATQL
# Variants of: B1
# Experiment: raw area under fraction-flipped curve 0-4 h after induction (AUC4h, not background-subtracted), DNA-recorder readout of cleavage of the substrate (dimensionless); higher = more cleavage of the substrate by the protease variant
# Settings: temperature: 34 °C; time window: 0-4 h after rhamnose induction
# Method: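 In vivo DNA recorder in E. coli TOP10(DE3) ΔrhaA at 34 °C. Each TEVp single-site mutant (parent TEVp 0) is paired with a single-site variant of the 7-mer TEVs (canonical ENLYFQ|S). The substrate sits between flexible linkers in a Bxb1-sfGFP-TEVs-SsrA fusion, so cleavage stabilises Bxb1 and speeds flipping of a recombination array, read by NGS. The value is the raw area under the fraction-flipped curve over 0-4 h after rhamnose induction (AUC4h), with ≥20 reads per time point. It is not background-subtracted; inactive controls average about 0.047.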
# 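Further: Bxb1 expression induced with 0.2% (w/v) L-rhamnose at OD600 near 0.5, cultures sampled hourly, flipped fraction per protease–substrate barcode pair counted by paired-end Illumina sequencing.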
Variant,area with substrate ENLYFCS,area with substrate ENLYFFS,area with substrate ENLYFGS,area with substrate ENLYFIS,area with substrate ENLYFLS,area with substrate ENLYFNS,area with substrate ENLYFPS,area with substrate ENLYFSS,area with substrate ENLYFTS,area with substrate ENLYFDS,area with substrate ENLYFES,area with substrate ENLYFVS,area with substrate ENLYFHS,area with substrate ENLYFMS,area with substrate ENLYFRS,area with substrate ENLYFYS,area with substrate ENLYFKS,area with substrate ENLYFWS
S154Q,0.0528,0.0705,0.0599,0.0473,0.0465,0.0652,0.0397,0.0666,0.0639,–,–,–,–,–,–,–,–,–
V157Y,0.055,0.0579,–,–,0.0605,0.0644,0.0353,0.0635,0.0579,0.0526,0.0565,0.0589,–,–,–,–,–,–
T159R,0.0594,0.0737,–,–,–,–,0.0851,–,–,–,–,–,0.0573,0.0566,0.0646,0.0496,–,–
D161E,0.0594,0.063,–,0.0528,0.0732,0.0606,0.0467,0.0564,0.0556,0.0642,0.0518,0.0473,0.056,0.0675,0.0563,0.0467,0.053,0.0504
F163T,0.0639,0.0624,–,0.0643,0.0594,0.0854,0.0553,–,–,0.059,0.0618,–,–,–,0.0557,0.0648,0.0723,–
I164K,0.0666,–,–,–,–,0.0538,–,–,0.0544,–,–,–,–,–,–,–,–,0.0493
A170M,0.061,–,–,–,–,–,0.0723,0.0608,–,–,0.0741,–,–,0.0587,0.065,–,0.0656,–
N172K,0.0734,0.0651,–,0.0391,–,0.0604,0.0563,–,0.0669,–,0.0735,–,–,–,–,0.0505,–,–
N172Y,0.0659,0.0886,–,0.0503,–,0.0569,–,–,–,–,–,0.0651,–,0.0552,–,–,–,–
F173G,0.0739,–,–,0.0516,–,0.063,–,–,–,–,0.0593,0.0322,–,–,0.0691,0.0542,0.059,0.0602
N175W,0.0616,–,–,–,–,–,–,–,–,–,–,–,–,–,–,–,0.0811,–
N178F,0.0668,–,–,0.0384,0.063,–,0.0583,–,–,–,–,–,0.0822,0.0917,0.0564,–,–,–
N178W,0.0392,–,–,–,–,–,0.0717,–,–,–,–,0.0639,–,–,–,–,0.0591,–
K185Q,0.0599,0.0659,–,0.0591,0.0518,0.0568,0.0523,0.0631,0.0583,–,0.0703,–,0.0521,0.0653,0.0539,0.0669,0.0653,–
N186I,0.0557,–,–,–,0.0497,–,–,–,–,0.0576,–,–,–,0.0668,–,0.0475,–,–
F187T,0.0521,–,–,–,–,0.0528,–,0.0515,–,–,0.0599,–,–,0.0593,–,0.059,0.057,–
M188D,0.0619,0.0624,–,0.0612,–,0.062,0.0626,0.0507,0.0546,0.0742,0.0637,–,0.0611,–,0.0542,0.0625,0.0578,–
E189H,0.0509,0.0862,–,0.0595,–,0.0664,0.059,0.0614,–,–,0.0622,–,0.0884,0.07,0.0629,0.0557,–,–

Variant,area with substrate ENLYFCS,area with substrate ENLYFFS,area with substrate ENLYFGS,area with substrate ENLYFIS,area with substrate ENLYFLS,area with substrate ENLYFNS,area with substrate ENLYFPS,area with substrate ENLYFSS,area with substrate ENLYFTS,area with substrate ENLYFDS,area with substrate ENLYFES,area with substrate ENLYFVS,area with substrate ENLYFHS,area with substrate ENLYFMS,area with substrate ENLYFRS,area with substrate ENLYFYS,area with substrate ENLYFKS,area with substrate ENLYFWS
N193W,0.0066,–,–,0.0572,–,0.0536,0.0493,–,–,–,–,–,–,0.0501,–,0.0666,–,–
Q194K,0.0606,–,–,0.0651,–,0.0602,0.0557,–,0.0457,0.0592,0.0615,0.0235,0.061,–,–,–,0.0582,0.074
Q194V,0.0479,–,–,0.0563,–,0.0447,0.0628,0.0659,0.0449,–,–,–,0.052,0.0652,0.0667,–,0.066,0.043
E195G,0.0636,–,0.0594,0.0464,–,0.0656,0.0597,–,0.0642,–,0.0573,–,–,–,0.0344,–,0.0778,0.0527
A196R,0.0515,–,–,–,–,–,–,–,0.0566,–,–,–,–,0.0769,–,0.0564,–,–
A196T,0.0642,0.0663,0.0597,0.0443,0.0671,–,0.045,0.0634,0.0524,0.0633,0.0574,–,0.0637,0.0612,0.0534,–,0.0584,0.0665
W199M,0.0538,0.0746,0.061,0.0604,–,0.0592,0.0617,0.0518,0.0389,0.0604,–,0.0447,0.0373,0.0579,0.0559,0.0582,–,0.0689
L211K,0.0574,–,0.087,0.0507,0.0635,0.0528,0.0542,–,0.0684,–,0.0627,–,–,–,–,0.0499,–,0.0572
G213Q,0.0621,–,–,–,0.0673,0.0657,–,–,0.0614,–,0.0632,0.0657,–,–,–,–,–,–
H215M,0.0526,0.0795,0.0667,0.0588,–,–,0.0584,–,–,–,0.0917,–,0.0573,–,–,–,0.0688,0.0535
F218D,0.0594,0.0694,0.061,0.0648,–,–,–,–,0.0625,–,0.052,0.055,–,0.0693,0.0513,–,0.0926,–
M219P,0.0538,0.0626,–,0.048,–,0.055,0.0547,0.0584,0.0592,0.0591,0.055,0.0646,–,0.0582,0.0645,0.0799,0.0602,–
K221H,0.0598,0.0683,0.0584,0.0643,–,0.0686,0.0631,0.0617,0.0514,0.0714,0.0608,0.0573,0.0503,0.0631,0.0647,0.0562,0.0539,0.052
P222N,0.0461,0.0926,–,0.0594,0.059,0.065,0.0642,0.0514,0.057,–,0.0745,0.0563,0.0516,0.0459,–,0.0469,–,0.0586
E231L,0.0555,0.0516,–,0.0614,0.0485,–,–,–,–,0.051,–,–,–,0.0639,0.0547,–,–,0.0611
Q234M,0.0645,0.0639,0.0569,0.0592,0.0574,0.0714,0.0578,–,0.0796,–,0.0574,0.0574,–,0.0264,0.0642,–,–,–
G35Q,–,–,–,0.0432,–,0.0319,0.0228,–,–,0.0541,–,–,–,–,–,–,–,–
I42T,–,0.0586,–,0.0474,–,0.0551,0.0531,–,0.0618,0.0442,0.0415,0.0459,–,0.0432,0.0641,0.0569,0.0396,0.04
